Test results: PubChem BioAssay (NCATS)
“And” between values parts separate entries of the source, which are not always exact repeats. Identical values can stand only once. Inconclusive means that the source gave no clear call. Such entries were picked first, then a sample of the others. Potencies of inconclusive entries are doubtful fits and often do not repeat. More than one record can exist for a structure, and the calls need not agree. The source made the active and inactive calls. Calls come from the whole dose curve; as a rule, active = well fitted curve in the direction sought with a large enough effect; inconclusive = small, poorly fitted or top-dose-only effect, or another doubt; inactive = no such curve, though single readings can be large; an effect the other way counts as inactive or inconclusive. Non-standard residues stand in square brackets, D forms with d. Residues, ends and D or L forms follow the SMILES beside them. *: point of attachment. Nva = CCC[C@H](N)C(=O)O; Cbz = O=C(OCc1ccccc1)*

Columns and labels:
[1] = target: Cellular tumor antigen p53 (Homo sapiens) (UniProt P04637); experiment: Primary qHTS for small molecule compounds that upregulate eGFP-tagged delta133p53alpha (in N-terminal) cells. (AID 2060322); settings: NCI-H358 eGFP-delta133p53alpha fluorescence, 24 h; activation: stronger effect = higher value; note: nearly all actives have a fitted effect of over 75% in size;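 for activation: 0% = DMSO vehicle and 100% = reference activator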
Outline: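 NCI-H358 cells pre-induced 24 h with 10 ng/ml doxycycline to express N-terminal eGFP-delta133p53alpha, then dosed 24 h at 37C without doxycycline; fixed, Hoechst-stained, GFP intensity by laser scanning cytometry, normalized to DMSO (0%) and 57.5 uM 5-azacytidine (100%).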

[2] = BET inhibitor-based combinations targeting novel dependencies in MECOM-rearranged (r) AML: OCI-AML3 cell line (AID 2202232); settings: CellTiter-Glo luminescence, 48 h; Potency: OCI-AML3 viability; viability (% of control): at 46 µM (top of the series); note: nearly all actives have a fitted effect of over 35% in size;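 for viability (% of control): plate controls were DMSO vehicle wells for no effect and wells without cells for full effect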
Outline: (§1)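 Cells were plated at 500 per well and exposed to an 11-point dose series of each drug for 48 hr. Viability was measured by CellTiter-Glo luminescence, normalized to DMSO and empty-well controls, and summarized as AUC and per-cell-line Z-AUC.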

[3] = BET inhibitor-based combinations targeting novel dependencies in MECOM-rearranged (r) AML: UCSD-AML1 cell line (AID 2202235); settings: UCSD-AML1 AML cells viability, CellTiter-Glo, 48 h; viability (% of control): at 46 µM (top of the series); note: nearly all actives have a fitted effect of over 40% in size;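 for viability (% of control): plate controls were DMSO vehicle wells for no effect and blank wells for full effect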
Outline: (§2)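 Activity is given as area under the curve and as Z-AUC, mean-centred within each cell line. It comes from 11-point dose curves normalized to DMSO and empty wells. CellTiter-Glo luminescence was read after 48 hr drug exposure of 500 cells/well.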

[4] = BET inhibitor-based combinations targeting novel dependencies in MECOM-rearranged (r) AML: HNT-34 cell line (AID 2202234); note: nearly all actives have a fitted effect of over 35% in size;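 for viability (% of control): plate controls were vehicle wells for no effect and cell-free wells for full effect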
Outline: as §2

[5] = BET inhibitor-based combinations targeting novel dependencies in MECOM-rearranged (r) AML: AML-191 cell line (AID 2202236; note: nearly all actives have a fitted effect of over 35% in size;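 for viability (% of control): plate controls were vehicle wells for no effect and wells without cells for full effect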)
Outline: as §1

[6] = BET inhibitor-based combinations targeting novel dependencies in MECOM-rearranged (r) AML: AML-194 cell line (AID 2202237; note: nearly all actives have a fitted effect of over 40% in size;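 for viability (% of control): plate controls were vehicle wells for no effect and wells without cells for full effect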)
Outline: as §1

[7] = BET inhibitor-based combinations targeting novel dependencies in MECOM-rearranged (r) AML: MV-4-11 cell line (AID 2202233); settings: MV-4-11 AML viability, CellTiter-Glo luminescence, 48 h; viability, % of control: at 46 µM (top of the series) unless noted; note: nearly all actives have a fitted effect of over 45% in size;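 for viability, % of control: plate controls were DMSO for no effect and blank wells for full effect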
Outline: as §2
Potency is the fitted concentration of half-maximal effect; tags give direction and shape of the fitted curve.

Chain of UniProt P04637 (P04637 whole entry, looked up): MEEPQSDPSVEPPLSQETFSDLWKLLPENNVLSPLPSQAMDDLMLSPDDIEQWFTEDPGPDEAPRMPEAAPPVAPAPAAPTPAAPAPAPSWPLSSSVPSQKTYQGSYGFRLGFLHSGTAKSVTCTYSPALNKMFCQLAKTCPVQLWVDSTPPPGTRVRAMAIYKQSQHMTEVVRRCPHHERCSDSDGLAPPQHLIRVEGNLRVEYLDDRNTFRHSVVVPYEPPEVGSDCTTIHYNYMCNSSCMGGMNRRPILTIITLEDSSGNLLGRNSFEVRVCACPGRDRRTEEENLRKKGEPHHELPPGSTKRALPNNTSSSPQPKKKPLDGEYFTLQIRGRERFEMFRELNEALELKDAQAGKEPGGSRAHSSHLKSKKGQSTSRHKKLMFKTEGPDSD

## Nc1cc(C(Cl)=C(Cl)Cl)c(S(N)(=O)=O)cc1S(N)(=O)=O
[1]
  Potency: inconclusive: 43.2 µM [activator, partial curve, poor fit]
[2]
  Potency: inactive
[3]
  Potency: inactive

## CCN1CCN(Cc2ccc(NC(=O)c3ccc(C)c(/C=C/c4cnc5[nH]ccc5c4OC)c3)cc2C(F)(F)F)CC1
[1]
  Potency: inconclusive: 30.1 µM [activator, single point]
[2]
  Potency: active: 5.25 µM
[3]
  Potency: active: 2.95 µM

## CC(C)(O)CNc1nc(Nc2ccnc(C(F)(F)F)c2)nc(-c2cccc(C(F)(F)F)n2)n1
[1]
  activation: inactive: -5% and inactive: -21.6%
[2]
  Potency: inconclusive: 13.2 µM [inhibitor, partial curve]
[4]
  Potency: inconclusive: 20.9 µM [inhibitor, partial curve]
[5]
  Potency: inconclusive: 16.6 µM [inhibitor, partial curve]
[6]
  Potency: inconclusive: 37.2 µM [inhibitor, single point]

## COc1ccc(Cl)c(Nc2nc3ccccc3nc2NS(=O)(=O)c2cccc(NC(=O)C(C)(C)N)c2)c1
[1]
  Potency: inconclusive: 37.9 µM [activator, single point]
[2]
  Potency: inconclusive: 11.8 µM [inhibitor, partial curve, poor fit]
[3]
  Potency: inconclusive: 16.6 µM [inhibitor, partial curve]
[6]
  Potency: active: 20.9 µM

## N#Cc1ccc(COC[C@H]2O[C@@H](n3c(NCc4ccc(Cl)c(Cl)c4)nc4c(N)ncnc43)[C@H](O)[C@@H]2O)cc1
[1]
  Potency: inconclusive: 18.5 µM [activator, single point]
[2]
  Potency: active: 2.63 µM
[3]
  Potency: active: 2.63 µM
[5]
  Potency: inconclusive: 4.68 µM [inhibitor, full curve]
[6]
  Potency: inconclusive: 5.25 µM [inhibitor, full curve]

## COc1cc(Nc2ncc3c(n2)-c2ccc(Cl)cc2C(c2c(F)cccc2OC)=NC3)ccc1C(=O)O
[1]
  Potency: inconclusive: 37.9 µM [activator, single point] and inconclusive: 15.1 µM [activator, partial curve, poor fit]
[2]
  Potency: inconclusive: 0.0417 µM [inhibitor, full curve]
[3]
  Potency: active: 0.059 µM
[5]
  Potency: inconclusive: 0.105 µM [inhibitor, full curve]
[6]
  Potency: inconclusive: 0.742 µM [inhibitor, full curve]

## Cc1ccc(C(=O)Nc2cccc(C(F)(F)F)c2)cc1-c1ccc2nc(NCCN3CCOCC3)ncc2c1
[1]
  Potency: inconclusive: 15.3 µM [activator, partial curve] and active: 26.9 µM
[2]
  Potency: active: 0.525 µM
[4]
  Potency: active: 0.0934 µM
[6]
  Potency: active: 3.32 µM

## CN(C)N(C)C(=O)[C@@]1(Cc2ccccc2)CCCN(C(=O)[C@@H](Cc2c[nH]c3ccccc23)NC(=O)C(C)(C)N)C1
[1]
  activation: inactive: -17.2%
[2]
  Potency: inconclusive: 18.6 µM [inhibitor, partial curve, poor fit]
[3]
  Potency: inactive

## O=C(Cc1ccc(-c2ccc(OCCN3CCOCC3)cc2)cn1)NCc1ccccc1
[1]
  Potency: inconclusive: 0.0109 µM [activator, full curve, poor fit]
[7]
  Potency: active: 0.118 µM
[4]
  Potency: inconclusive: 0.0833 µM [inhibitor, full curve]

## C[C@]1(c2nc3c(C(N)=O)cccc3[nH]2)CCCN1
[1]
  activation: inconclusive: 5.59% [activator]
[7]
  Potency: inconclusive: 18.6 µM [inhibitor, partial curve]
[4]
  Potency: inconclusive: 26.3 µM [inhibitor, single point]

## CCCCCCCCCCCC(CC1OC(=O)C1CCCCCC)OC(=O)C(CC(C)C)NC=O (stereo not drawn)
[1]
  Potency: inconclusive: 48.5 µM [activator, single point]
[7]
  Potency: active: 0.742 µM
[4]
  Potency: inconclusive: 11.8 µM [inhibitor, partial curve]

## Cc1cc(Nc2ncc(Cl)c(Nc3ccccc3S(=O)(=O)C(C)C)n2)c(OC(C)C)cc1C1CCNCC1
[1]
  Potency: active: 7.57 µM
[7]
  Potency: active: 4.68 µM

## CN(C)CCN(C)C(=O)c1ccc(NC(=O)Nc2ccc(-c3nc(N4CCOCC4)c4ccn(CC(F)(F)F)c4n3)cc2)cc1
[1]
  Potency: inconclusive: 27.3 µM [activator, partial curve, poor fit]
[7]
  Potency: inconclusive: 0.132 µM [inhibitor, full curve]
[4]
  Potency: inconclusive: 0.186 µM [inhibitor, full curve, poor fit]
[5]
  Potency: inconclusive: 0.296 µM [inhibitor, full curve, poor fit]
[6]
  Potency: inconclusive: 0.417 µM [inhibitor, full curve]

## COc1cc(N2CCC(N(C)C)CC2)ccc1Nc1ncc(Cl)c(Nc2ccccc2P(C)(C)=O)n1
[1]
  Potency: active: 2.69 µM
[7]
  Potency: active: 0.0934 µM
[4]
  Potency: active: 2.63 µM
[6]
  Potency: active: 7.42 µM

## Clc1ccccc1CN1CCc2sccc2C1
[1]
  Potency: active: 17.2 µM
[7]
  Potency: inconclusive: 18.6 µM [inhibitor, partial curve, poor fit]

## Cc1ccc(C(=O)Nc2ccc(CN3CCN(C)CC3)c(C(F)(F)F)c2)cc1C#Cc1cnc2cccnn12
[1]
  Potency: active: 7.69 µM and active: 10.7 µM
[7]
  Potency: active: 0.0263 µM
[3]
  Potency: active: 2.63 µM
[5]
  Potency: active: 0.934 µM
[6]
  Potency: active: 1.48 µM

## C[C@@H](NCCCc1cccc(C(F)(F)F)c1)c1cccc2ccccc12
[1]
  Potency: inconclusive: 38.9 µM [activator, single point]
[7]
  Potency: inconclusive: 16.6 µM [inhibitor, partial curve, poor fit]
[3]
  Potency: inconclusive: 16.6 µM [inhibitor, partial curve]
[6]
  Potency: active: 26.3 µM

## O=C(Nc1ccccc1-c1cn2c(CN3CCNCC3)csc2n1)c1cnc2ccccc2n1
[1]
  activation: inconclusive: 30.3% [activator] and inconclusive: 30.2% [activator]
[7]
  Potency: active: 5.25 µM

## Cc1c(-c2ccnn2C)cc(C(=O)NCc2ccc(S(C)(=O)=O)cn2)c(=O)n1-c1cccc(C(F)(F)F)c1
[1]
  Potency: inconclusive: 10.8 µM [activator, partial curve, poor fit] and inconclusive: 13.5 µM [activator, partial curve, poor fit]
[7]
  Potency: inactive
[4]
  Potency: inactive
[5]
  Potency: inactive
[6]
  Potency: inactive

## COc1cc2c(Nc3ccc(Cl)c(Cl)c3F)ncnc2cc1OCC1C[C@@H]2CN(C)C[C@@H]2C1 (stereo partly drawn)
[1]
  Potency: active: 13.5 µM and active: 19.3 µM
[7]
  Potency: active: 5.9 µM and active: 5.25 µM
[4]
  Potency: active: 1.05 µM and active: 1.18 µM

## CS(=O)(=O)OCCCCOS(C)(=O)=O
[1]
  Potency: inconclusive: 19.5 µM [activator, single point]
[7]
  Potency: inactive
[4]
  Potency: inactive

## C[C@H]1C[C@@H]2[C@H]([C@@H](O)C[C@@]3(C)[C@H]2CC[C@]3(O)C(=O)CO)[C@@]2(C)C=CC(=O)C=C12
[1]
  activation: inactive: 5.86%
[7]
  Potency: inactive
[4]
  Potency: inconclusive: 14.8 µM [inhibitor, partial curve, poor fit]

## COc1cc2nc(-c3cc(F)ccc3O)nc(N[C@@H]3CNC[C@H]3C(C)(C)O)c2cc1OC
[1]
  Potency: active: 21.3 µM
[7]
  Potency: active: 0.0066 µM
[5]
  Potency: active: 5.25 µM

## CCN1CCN(Cc2ccc(-c3cc4c(N[C@H](C)c5ccccc5)ncnc4[nH]3)cc2)CC1
[1]
  Potency: inconclusive: 1.22 µM [activator, full curve, poor fit]
[7]
  Potency: active: 2.63 µM

## c1ccc2c(Cc3c[nH]c4ccccc34)c[nH]c2c1
[1]
  Potency: inconclusive: 43.2 µM [activator, single point]
[7]
  Potency: inconclusive: 8.33 µM [inhibitor, partial curve, poor fit]
[4]
  Potency: inconclusive: 20.9 µM [inhibitor, single point]
[3]
  Potency: inactive
[5]
  Potency: inactive

## CCCCCOC(=O)Nc1nc(=O)n([C@@H]2O[C@H](C)[C@@H](O)[C@H]2O)cc1F
[1]
  activation: inactive: -37.9%
[7]
  Potency: inactive
[5]
  Potency: inconclusive: 23.5 µM [inhibitor, partial curve]

## CN1CCN(C2CCN(C(=O)Nc3cc(Oc4ccc(NC(=O)C5(C(=O)Nc6ccc(F)cc6)CC5)c(F)c4)ccn3)CC2)CC1
[1]
  Potency: active: 26.9 µM
[7]
  Potency: active: 0.296 µM

## Cc1ccc(-c2ccc3ncc4c(c3n2)n(C2CCN(C(=O)[C@H](C)O)CC2)c(=O)n4C)cn1
[1]
  Potency: active: 12 µM
[7]
  Potency: active: 0.209 µM
[4]
  Potency: active: 0.263 µM
[6]
  Potency: active: 0.417 µM

## CC(C)[C@H](CO)Nc1nc(Nc2ccc(C(=O)O)c(Cl)c2)c2ncn(C(C)C)c2n1
[1]
  Potency: inconclusive: 43.2 µM [activator, single point]
[7]
  Potency: inconclusive: 13.2 µM [inhibitor, partial curve, poor fit]
[3]
  Potency: inactive
[5]
  Potency: inactive

## CC(S)C(=O)NCC(=O)O (stereo not drawn)
[1]
  Potency: inconclusive: 0.49 µM [activator, full curve, poor fit]
[7]
  Potency: inconclusive: 11.8 µM [inhibitor, single point]
[3]
  Potency: inactive
[5]
  Potency: inconclusive: 11.8 µM [inhibitor, single point]
[6]
  Potency: inactive

## CCC[C@@H](C=O)NC(=O)[C@H](CC(C)C)NC(=O)[C@H](CC(C)C)NC(=O)OCc1ccccc1 (Cbz-Leu-Leu-[Nva]-aldehyde)
[1]
  Potency: active: 5.44 µM
[7]
  Potency: active: 2.95 µM
[3]
  Potency: active: 3.32 µM

## COc1ccc2cc(OCC3(C(=O)O)CN(C(=O)c4ccc(F)cc4)C3)ccc2c1
[1]
  activation: inactive: 2.86%
[7]
  Potency: inconclusive: 13.2 µM [inhibitor, single point]
[4]
  Potency: inactive
